# Laboratory results published in the supplement of paper PMC8728848.
# The list shows a part of the results.
# B1: Gal 3 (Homo sapiens), P17931 (protein)
# chain: MADNFSLHDALSGSGNPNPQGWPGAWGNQPAGAGGYPGASYPGAYPGQAPPGAYPGQAPPGAYHGAPGAYPGAPAPGVYPGPPSGPGAYPSSGQPSAPGAYPATGPYGAPAGPLIVPYNLPLPGGVVPRMLITILGTVKPNANRIQLDFQRGNDVAFHFNPRFNENNRRVIVCNTKLDNNWGREERQSVFPFESGKPFKIQVLVEPDHFKVAVNDAHLLQYNHRVKKLNEISKLGISGDIDLTSASYTMI
# Legend:
# Assay in all cases: glycan array binding signal (z-score within array); higher = stronger binding
# Conditions in all cases: glycan notation: IUPAC condensed, linker removed; mutation: A146Q
# [1] = molecular target: GlcNAc(b1-3)Gal(b1-4)GlcNAc(b1-3)Gal(b1-4)GlcNAc
# How it was run: (§1)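 Glycan array binding is given as a within-array Z-score, which can be read as non-binding when negative. The arrays, 3228 of them, came from the Consortium for Functional Glycomics database and were retained only where the protein sequence was available. Z-scores were averaged across arrays of the same protein sequence at different concentrations or buffers and across linkers.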
# [2] = molecular target: GlcNAc(b1-3)GalNAc
# How it was run: as §1
# [3] = molecular target: GlcNAc(b1-3)Man
# How it was run: as §1
# [4] = molecular target: GlcNAc(b1-3)[GlcNAc(b1-4)][GlcNAc(b1-6)]GlcNAc
# How it was run: as §1
# [5] = molecular target: GlcNAc(b1-3)[GlcNAc(b1-6)]Gal(b1-4)GlcNAc
# How it was run: as §1
# [6] = molecular target: GlcNAc(b1-3)[GlcNAc(b1-6)]GalNAc
# How it was run: as §1
# [7] = molecular target: GlcNAc(b1-4)Gal(b1-4)GlcNAc
# How it was run: as §1
# [8] = molecular target: GlcNAc(b1-4)GlcNAc
# How it was run: as §1
# [9] = molecular target: GlcNAc(b1-4)GlcNAc(b1-4)GlcNAc
# How it was run: as §1
# [10] = molecular target: GlcNAc(b1-4)GlcNAc(b1-4)GlcNAc(b1-4)GlcNAc(b1-4)GlcNAc
# How it was run: as §1
# [11] = molecular target: GlcNAc(b1-4)GlcNAc(b1-4)GlcNAc(b1-4)GlcNAc(b1-4)GlcNAc(b1-4)GlcNAc
# How it was run: as §1
# [12] = molecular target: GlcNAc(b1-4)[GlcNAc(b1-6)]GalNAc
# How it was run: as §1
# [13] = molecular target: GlcNAc(b1-6)Gal(b1-4)GlcNAc
# How it was run: as §1
# [14] = molecular target: GlcNAc(b1-6)GalNAc
# How it was run: as §1
# [15] = molecular target: GlcNAc3Prop(b1-4)GlcNAc
# How it was run: as §1
# [16] = molecular target: GlcNAc6S(b1-3)Gal(b1-4)GlcNAc
# How it was run: as §1
# [17] = molecular target: Kdn(a2-3)Gal(b1-3)GalNAc
# How it was run: as §1
# [18] = molecular target: Kdn(a2-3)Gal(b1-3)GlcNAc
# How it was run: as §1
# [19] = molecular target: Kdn(a2-3)Gal(b1-4)Glc
# How it was run: as §1
# [20] = molecular target: Kdn(a2-3)Gal(b1-4)GlcNAc
# How it was run: as §1
# [21] = molecular target: Kdn(a2-3)Gal(b1-4)[Fuc(a1-3)]GlcNAc
# How it was run: as §1
# [22] = molecular target: Kdn(a2-6)Gal(b1-4)GlcNAc
# How it was run: as §1
# [23] = molecular target: Man(a1-2)Man(a1-2)Man(a1-3)Man
# How it was run: as §1
# [24] = molecular target: Man(a1-2)Man(a1-2)Man(a1-6)[Man(a1-3)]Man
# How it was run: as §1
# [25] = molecular target: Man(a1-2)Man(a1-3)Man
# How it was run: as §1
# [26] = molecular target: Man(a1-2)Man(a1-3)[Man(a1-2)Man(a1-6)]Man
# How it was run: as §1
# [27] = molecular target: Man(a1-2)Man(a1-3)[Man(a1-2)Man(a1-6)]Man(a1-6)[Man(a1-2)Man(a1-2)Man(a1-3)]Man
# How it was run: as §1
# [28] = molecular target: Man(a1-2)Man(a1-3)[Man(a1-2)Man(a1-6)]Man(a1-6)[Man(a1-2)Man(a1-2)Man(a1-3)]Man(b1-4)GlcNAc(b1-4)GlcNAc
# How it was run: as §1
# [29] = molecular target: Man(a1-2)Man(a1-3)[Man(a1-6)]Man(a1-6)[Man(a1-2)Man(a1-3)]Man(b1-4)GlcNAc(b1-4)GlcNAc
# How it was run: as §1
# [30] = molecular target: Man(a1-2)Man(a1-6)[Man(a1-3)]Man(a1-6)[Man(a1-2)Man(a1-2)Man(a1-3)]Man
# How it was run: as §1
# [31] = molecular target: Man(a1-2)Man(a1-6)[Man(a1-3)]Man(a1-6)[Man(a1-2)Man(a1-2)Man(a1-3)]Man(b1-4)GlcNAc(b1-4)GlcNAc
# How it was run: as §1
# [32] = molecular target: Man(a1-3)[Man(a1-6)]Man
# How it was run: as §1
# [33] = molecular target: Man(a1-3)[Man(a1-6)]Man(a1-6)[Man(a1-2)Man(a1-3)]Man(b1-4)GlcNAc(b1-4)GlcNAc
# How it was run: as §1
# [34] = molecular target: Man(a1-3)[Man(a1-6)]Man(a1-6)[Man(a1-3)]Man
# How it was run: as §1
# [35] = molecular target: Man(a1-3)[Man(a1-6)]Man(a1-6)[Man(a1-3)]Man(b1-4)GlcNAc(b1-4)GlcNAc
# How it was run: as §1
# [36] = molecular target: Man(a1-3)[Man(a1-6)]Man(b1-4)GlcNAc(b1-4)GlcNAc
# How it was run: as §1
# [37] = molecular target: Man(a1-6)Man
# How it was run: as §1
# [38] = molecular target: Man(b1-4)GlcNAc
# How it was run: as §1
# [39] = molecular target: Neu5Ac(a2-3)Gal
# How it was run: as §1
# [40] = molecular target: Neu5Ac(a2-3)Gal(b1-3)GalNAc
# How it was run: as §1
# [41] = molecular target: Neu5Ac(a2-3)Gal(b1-3)GalNAc(b1-3)Gal(a1-4)Gal(b1-4)Glc
# How it was run: as §1
# [42] = molecular target: Neu5Ac(a2-3)Gal(b1-3)GalNAc(b1-4)[Neu5Ac(a2-3)]Gal(b1-4)Glc
# How it was run: as §1
# [43] = molecular target: Neu5Ac(a2-3)Gal(b1-3)GalNAc6S
# How it was run: as §1
# [44] = molecular target: Neu5Ac(a2-3)Gal(b1-3)GlcNAc
# How it was run: as §1
# [45] = molecular target: Neu5Ac(a2-3)Gal(b1-3)GlcNAc(b1-2)Man(a1-3)[Neu5Ac(a2-3)Gal(b1-3)GlcNAc(b1-2)Man(a1-6)]Man(b1-4)GlcNAc(b1-4)GlcNAc
# How it was run: as §1
binder,measurement,setting,value
B1,glycan array binding signal (z-score),[1],0.858
same,glycan array binding signal (z-score),[2],-0.202
same,glycan array binding signal (z-score),[3],-0.204
same,glycan array binding signal (z-score),[4],-0.166
same,glycan array binding signal (z-score),[5],-0.206
same,glycan array binding signal (z-score),[6],-0.198
same,glycan array binding signal (z-score),[7],-0.192
same,glycan array binding signal (z-score),[8],-0.132
same,glycan array binding signal (z-score),[9],-0.18
same,glycan array binding signal (z-score),[10],-0.091
same,glycan array binding signal (z-score),[11],-0.153
same,glycan array binding signal (z-score),[12],-0.203
same,glycan array binding signal (z-score),[13],-0.195
same,glycan array binding signal (z-score),[14],-0.194
same,glycan array binding signal (z-score),[15],-0.201
same,glycan array binding signal (z-score),[16],-0.198
same,glycan array binding signal (z-score),[17],-0.191
same,glycan array binding signal (z-score),[18],-0.183
same,glycan array binding signal (z-score),[19],-0.194
same,glycan array binding signal (z-score),[20],-0.18
same,glycan array binding signal (z-score),[21],-0.201
same,glycan array binding signal (z-score),[22],-0.2
same,glycan array binding signal (z-score),[23],-0.186
same,glycan array binding signal (z-score),[24],-0.177
same,glycan array binding signal (z-score),[25],-0.199
same,glycan array binding signal (z-score),[26],-0.192
same,glycan array binding signal (z-score),[27],-0.196
same,glycan array binding signal (z-score),[28],-0.15
same,glycan array binding signal (z-score),[29],-0.176
same,glycan array binding signal (z-score),[30],-0.183
same,glycan array binding signal (z-score),[31],-0.202
same,glycan array binding signal (z-score),[32],-0.181
same,glycan array binding signal (z-score),[33],-0.202
same,glycan array binding signal (z-score),[34],-0.203
same,glycan array binding signal (z-score),[35],-0.189
same,glycan array binding signal (z-score),[36],-0.201
same,glycan array binding signal (z-score),[37],-0.153
same,glycan array binding signal (z-score),[38],-0.2
same,glycan array binding signal (z-score),[39],-0.197
same,glycan array binding signal (z-score),[40],-0.198
same,glycan array binding signal (z-score),[41],-0.179
same,glycan array binding signal (z-score),[42],-0.201
same,glycan array binding signal (z-score),[43],-0.192
same,glycan array binding signal (z-score),[44],-0.194
same,glycan array binding signal (z-score),[45],-0.122
